Data as given in the supplement of paper PMC10037445.
In all, about 2,900 compounds were measured (“IRF Lucia reporter activity, fold change vs agonist alone”: median about 0.9, highest 2% from about 2.8 on). The list shows a part of the results.

Legend:
[1] = test system: RAW-Dual; assay: IRF Lucia reporter activity, fold change vs agonist alone; higher = enhanced IRF activity; settings: agonist: MPLA (TLR4) […]
Outline: (§1)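 RAW-Dual macrophages (50,000 cells/well in DMEM, 384-well plates) received 50 nL of library stock by pin tool, then a PRR agonist 1 h later, and were kept at 37 °C, 5% CO2. After 20 hours, supernatant was read for IRF by QuantiLuc luminescence and for NF-κB by QuantiBlue absorbance at 620 nm. Reporter activity is fold change over agonist-alone wells. Cytotoxic wells had IncuCyte confluency below 70% of agonist controls in both mask sets.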

[2] = test system: RAW-Dual; assay: IRF Lucia reporter activity, fold change vs agonist alone; cytotoxicity flag (confluency mask): not cytotoxic; higher = enhanced IRF activity
Outline: as §1

[3] = test system: RAW-Dual; assay: IRF Lucia reporter activity, fold change vs agonist alone; cytotoxicity flag (confluency mask): cytotoxic (confluency <70% of control); higher = enhanced IRF activity
Outline: as §1

[4] = library stock concentration (final ~1000-fold dilution): 10 mM, cytotoxicity flag (confluency mask): not cytotoxic
[5] = agonist: 3'3'-cGAMP (STING) 10 ug/mL

Structure (SMILES): CCCCNc1ccc(C(=O)OCCN(C)C)cc1.Cl
- IRF Lucia reporter activity [1, 4]: 1.07

Structure (SMILES): CCCCNc1ccc(C(=O)OCCN(C)C)cc1.Cl (library stock concentration (final ~1000-fold dilution): 10 mM)
- IRF Lucia reporter activity [2, 5]: 0.886
- IRF Lucia reporter activity ([2]; agonist: LPS (TLR4) 0.1 ug/mL): 0.983

Structure (SMILES): Cc1cccc(-c2nn3c(c2-c2ccnc4ccc(C(N)=O)cc24)CCC3)n1 (library stock concentration (final ~1000-fold dilution): 10 mM)
- IRF Lucia reporter activity [2, 5]: 0.841
- IRF Lucia reporter activity ([2]; agonist: LPS (TLR4) 0.1 ug/mL): 0.702

Structure (SMILES): Cc1cccc(-c2nn3c(c2-c2ccnc4ccc(C(N)=O)cc24)CCC3)n1
- IRF Lucia reporter activity [1, 4]: 0.787

Structure (SMILES): CN1CCN(c2ccc3nc(-c4c(N)c5c(F)cccc5[nH]c4=O)[nH]c3c2)CC1 (library stock concentration (final ~1000-fold dilution): 10 mM)
- IRF Lucia reporter activity [2, 5]: 0.0724
- IRF Lucia reporter activity ([2]; agonist: LPS (TLR4) 0.1 ug/mL): 0.202

Structure (SMILES): CN1CCN(c2ccc3nc(-c4c(N)c5c(F)cccc5[nH]c4=O)[nH]c3c2)CC1
- IRF Lucia reporter activity [1, 4]: 0.345

Structure (SMILES): O=c1[nH]cnc2ccccc12 (library stock concentration (final ~1000-fold dilution): 10 mM)
- IRF Lucia reporter activity [2, 5]: 1.01
- IRF Lucia reporter activity ([2]; agonist: LPS (TLR4) 0.1 ug/mL): 1.12

Structure (SMILES): O=C(Oc1coc(CSc2ncccn2)cc1=O)c1ccc([N+](=O)[O-])cc1 (library stock concentration (final ~1000-fold dilution): 10 mM)
- IRF Lucia reporter activity [2, 5]: 0.961
- IRF Lucia reporter activity ([2]; agonist: LPS (TLR4) 0.1 ug/mL): 0.56

Structure (SMILES): COc1ccccc1Oc1c(NS(=O)(=O)c2ccc(C(C)(C)C)cc2)nc(-c2ncccn2)nc1OCCO.O
- IRF Lucia reporter activity [1, 4]: 1.1

Structure (SMILES): COc1ccccc1Oc1c(NS(=O)(=O)c2ccc(C(C)(C)C)cc2)nc(-c2ncccn2)nc1OCCO.O (library stock concentration (final ~1000-fold dilution): 10 mM)
- IRF Lucia reporter activity [2, 5]: 1
- IRF Lucia reporter activity ([2]; agonist: LPS (TLR4) 0.1 ug/mL): 1.19

Structure (SMILES): CN(Cc1cnc2nc(N)nc(N)c2n1)c1ccc(C(=O)NC(CCC(=O)O)C(=O)O)cc1 (stereo unspecified) (library stock concentration (final ~1000-fold dilution): 10 mM)
- IRF Lucia reporter activity [3, 5]: 0.801
- IRF Lucia reporter activity ([3]; agonist: LPS (TLR4) 0.1 ug/mL): 0.929

Structure (SMILES): CN(Cc1cnc2nc(N)nc(N)c2n1)c1ccc(C(=O)NC(CCC(=O)O)C(=O)O)cc1 (stereo unspecified)
- IRF Lucia reporter activity ([1]; library stock concentration (final ~1000-fold dilution): 10 mM water, cytotoxicity flag (confluency mask): not cytotoxic): 1.3
- IRF Lucia reporter activity ([1]; library stock concentration (final ~1000-fold dilution): 10 mM, cytotoxicity flag (confluency mask): cytotoxic (confluency <70% of control)): 0.987

Structure (SMILES): CN(Cc1cnc2nc(N)nc(N)c2n1)c1ccc(C(=O)NC(CCC(=O)O)C(=O)O)cc1 (stereo unspecified) (library stock concentration (final ~1000-fold dilution): 10 mM water)
- IRF Lucia reporter activity [2, 5]: 0.768
- IRF Lucia reporter activity ([2]; agonist: LPS (TLR4) 0.1 ug/mL): 0.849

Structure (SMILES): COc1cc(F)ccc1-c1ncnc(Nc2cccc(CS(C)(=N)=O)c2)n1 (stereo unspecified) (library stock concentration (final ~1000-fold dilution): 10 mM)
- IRF Lucia reporter activity [3, 5]: 0.0171
- IRF Lucia reporter activity ([3]; agonist: LPS (TLR4) 0.1 ug/mL): 0.0244

Structure (SMILES): Nc1cc(C(F)(F)F)c(-c2nc(N3CCOCC3)nc(N3CCOCC3)n2)cn1 (library stock concentration (final ~1000-fold dilution): 10 mM)
- IRF Lucia reporter activity [2, 5]: 0.238
- IRF Lucia reporter activity ([2]; agonist: LPS (TLR4) 0.1 ug/mL): 1.01
